PubChem BioAssay AID1745853 (National Center for Advancing Translational Sciences (NCATS), 2022)
Several values for one entry are separate records, joined by “and”; a condition that tells them apart may be missing. Identical values can stand only once. This is one part of the list. Shown are side measurements of this screen, not its main read-out; they come without a call.

What was measured:
Test in all cases: Primary Screen for Target Class Profiling of Small Molecule Inhibitors of Methyltransferases
[1] = target: Glycine N-methyltransferase (Homo sapiens) (UniProt Q14749); conditions: purified enzyme, MTase-Glo SAH luminescence; measured here: GNMT inhibition; at 40 µM; stronger effect = lower value
How it was run: (§1)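 Each enzyme was reacted with SAM and its substrate, with compounds tested once at 40 uM; SAH formed was read by MTase-Glo luminescence.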

[2] = target: Guanidinoacetate N-methyltransferase (Homo sapiens) (UniProt Q14353); conditions: purified enzyme, MTase-Glo SAH luminescence; measured here: GAMT inhibition; at 40 µM; stronger effect = lower value
How it was run: as §1

[3] = target: Histamine N-methyltransferase (Homo sapiens) (UniProt P50135); conditions: purified enzyme, MTase-Glo SAH luminescence; measured here: HNMT inhibition; at 40 µM; stronger effect = lower value
How it was run: as §1

[4] = target: Nicotinamide N-methyltransferase (Homo sapiens) (UniProt P40261); conditions: purified enzyme, MTase-Glo SAH luminescence; measured here: NNMT inhibition; at 40 µM; stronger effect = lower value
How it was run: as §1

[5] = target: Phenylethanolamine N-methyltransferase (Homo sapiens) (UniProt P11086); conditions: purified enzyme, MTase-Glo SAH luminescence; measured here: PNMT inhibition; at 40 µM; stronger effect = lower value
How it was run: as §1
% is scaled to controls: 0 for no effect and ±100 for the full control effect.

Row | SMILES | activity change, negative = inhibition [1] | activity change, negative = inhibition [2] | activity change, negative = inhibition [3] | activity change, negative = inhibition [4] | activity change, negative = inhibition [5]
1 | CC(=O)NCC(=O)N1c2ccccc2CC1c1nc(C(C)C)no1 (stereo not given) | 1.18% | -1.92% | -0.213% | -0.368% | 0.054%
2 | CCOc1ccc(Nc2nc3c(S(=O)(=O)c4ccccc4)nnn3c3ccccc23)cc1 | -5.58% | 3.45% | -3.74% | -8.72% | -5.09%
3 | CC(C)CNC(=O)c1ccc2c(=O)n(C(C)C)c3nn(CC(=O)NC(C)(C)C)c(=O)n3c2c1 | 6.47% | 1.25% | 11.4% | 2.64% | 7.29%
4 | CC1(C(=O)NC2CCCCCC2)Cn2c(cc3sccc32)C(=O)N1Cc1ccccc1 (stereo not given) | 5.82% | 0.709% | 7.41% | -1.93% | 3.79%
5 | CCOCCCNC(=O)Cn1ccc2cc(S(=O)(=O)N3CCCCC3)ccc21 | 5.46% | 0% | 0.94% | 4.31% | 1.27%
6 | CNS(=O)(=O)CCc1ccc2[nH]cc(C3CCN(C)CC3)c2c1 | -3.56% and 3.06% | 4.57% and 7.73% | -19.6% and -9.73% | -4.09% and -4.41% | 8.45% and 7.33%
7 | Cc1nc2ccccc2n1CCNS(=O)(=O)c1cccc(Cl)c1 | -4.99% | 1.06% | -3.73% | -7.92% | -1.63%
8 | CC(C)(C)NC(=O)N1CCCC(c2nc(CCOCC3CC3)no2)C1 (stereo not given) | -4.22% | -2.24% | 0.073% | -1.85% | 1.93%
9 | CCCCNC(=O)[C@@H]1Cc2ccccc2N1C(=O)[C@@H](N)CC | -1.74% | -0.149% | 4.14% | -12.2% | 2.57%
10 | O=C(c1nc(-c2ccc(Cl)cc2Cl)c2cnccn12)N1CCOCC1 | -7.67% | -6.08% | -4.4% | -18.8% | -8.19%
11 | C=CCNC(=O)c1cc2n(n1)CC(C)(C(=O)NCc1ccccc1)N(C)C2=O (stereo not given) | -5.02% | 0.91% | -2.13% | -5.63% | -3.1%
12 | C=CC(C)(O)CO[C@@H]1O[C@H](CO)[C@@H](O)[C@H](O)[C@H]1O (stereo not given in full) | 0.242% | -1.07% | 9.12% | -13% | -4.94%
13 | COC(=O)COc1ccc(CC2C(=O)NCCc3ccccc3OCC(=O)N2C)cc1 (stereo not given) | -1.59% | -1.62% | 0.671% | -7.2% | -10.5%
14 | O=C(Cn1c(=O)oc2cc(S(=O)(=O)N3CCCC3)ccc21)Nc1ccccc1F | 0.527% | 2.64% | 3.43% | 1.48% | -4.17%
15 | Cc1ccccc1CN1C(=O)c2cc(-c3ccccc3)nn2CC1(C)C(=O)NCc1ccccc1 (stereo not given) | 2.11% | 4.47% | 1.35% | -2.99% | -4.97%
16 | CC(O)C(O)[C@H]1CNc2nc(N)[nH]c(=O)c2N1 (stereo not given in full) | -31.6% | 7.98% | 3.51% | -1.77% | 11.1%
17 | Nc1nc(NC2CC2)cc(-c2cccc(Cl)c2Cl)n1 | -4.35% | 7.52% | -3.55% | -60.6% | -8.23%
18 | Cc1ccc(NC(=O)CSc2nnc3n(CC(C)C)c(=O)c4cc(F)ccc4n23)c(Cl)c1 | -5.81% | 2.51% | 3.71% | -14.5% | -1.33%
